From the supplement of paper PMC8728848
This is one part of the list.

Columns and labels:
Assay in all cases: glycan array binding signal (z-score within array); higher = stronger binding
Conditions in all cases: glycan notation: IUPAC condensed, linker removed
[1] = target: Fuc(a1-2)[Gal(a1-3)]Gal(b1-4)GlcNAc(b1-3)GalNAc
Procedure, shortened: (§1)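 Columns mapping to the same glycan were averaged after glycan names were converted to IUPAC-condensed notation. The data come from 3228 arrays in the Consortium for Functional Glycomics database, limited to those with an available protein sequence. Binding is reported as a within-array Z-score averaged across arrays of one protein sequence and across linkers.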

[2] = target: Fuc(a1-2)[Gal(a1-3)]Gal(b1-4)[Fuc(a1-3)]Glc
Procedure, shortened: as §1

[3] = target: Fuc(a1-2)[Gal(a1-3)]Gal(b1-4)[Fuc(a1-3)]GlcNAc
Procedure, shortened: as §1

[4] = target: Fuc(a1-2)[Gal(a1-3)]Gal(b1-4)[Fuc(a1-3)]GlcNAc(b1-3)GalNAc
Procedure, shortened: as §1

[5] = target: Fuc(a1-2)[Gal(a1-4)]Gal(b1-4)GlcNAc
Procedure, shortened: as §1

[6] = target: Fuc(a1-2)[GalNAc(a1-3)]Gal
Procedure, shortened: as §1

[7] = target: Fuc(a1-2)[GalNAc(a1-3)]Gal(b1-3)GalNAc(a1-3)[Fuc(a1-2)]Gal(b1-4)GlcNAc
Procedure, shortened: as §1

[8] = target: Fuc(a1-2)[GalNAc(a1-3)]Gal(b1-3)GlcNAc
Procedure, shortened: as §1

[9] = target: Fuc(a1-2)[GalNAc(a1-3)]Gal(b1-3)GlcNAc(b1-2)Man(a1-3)[Fuc(a1-2)[GalNAc(a1-3)]Gal(b1-3)GlcNAc(b1-2)Man(a1-6)]Man(b1-4)GlcNAc(b1-4)GlcNAc
Procedure, shortened: as §1

[10] = target: Fuc(a1-2)[GalNAc(a1-3)]Gal(b1-3)GlcNAc(b1-3)GalNAc
Procedure, shortened: as §1

[11] = target: Fuc(a1-2)[GalNAc(a1-3)]Gal(b1-4)Glc
Procedure, shortened: as §1

[12] = target: Fuc(a1-2)[GalNAc(a1-3)]Gal(b1-4)GlcNAc
Procedure, shortened: as §1

[13] = target: Fuc(a1-2)[GalNAc(a1-3)]Gal(b1-4)GlcNAc(b1-2)Man(a1-3)[Fuc(a1-2)[GalNAc(a1-3)]Gal(b1-4)GlcNAc(b1-2)Man(a1-6)]Man(b1-4)GlcNAc(b1-4)GlcNAc
Procedure, shortened: as §1

[14] = target: Fuc(a1-2)[GalNAc(a1-3)]Gal(b1-4)GlcNAc(b1-3)Gal(b1-4)GlcNAc
Procedure, shortened: as §1

[15] = target: Fuc(a1-2)[GalNAc(a1-3)]Gal(b1-4)GlcNAc(b1-3)Gal(b1-4)GlcNAc(b1-3)Gal(b1-4)GlcNAc
Procedure, shortened: as §1

[16] = target: Fuc(a1-2)[GalNAc(a1-3)]Gal(b1-4)GlcNAc(b1-3)GalNAc
Procedure, shortened: as §1

[17] = target: Fuc(a1-2)[GalNAc(a1-3)]Gal(b1-4)[Fuc(a1-3)]GlcNAc
Procedure, shortened: as §1

[18] = target: Fuc(a1-2)[GalNAc(a1-3)]Gal(b1-4)[Fuc(a1-3)]GlcNAc(b1-3)GalNAc
Procedure, shortened: as §1

[19] = target: Fuc(a1-2)[GalNAc(a1-4)]Gal(b1-4)GlcNAc
Procedure, shortened: as §1

[20] = target: Fuc(a1-2)[GalNAc(b1-3)]Gal
Procedure, shortened: as §1

Fuc(a1-3)GlcNAc = target: Fuc(a1-3)GlcNAc
Procedure, shortened: as §1

[21] = target: Fuc(a1-3)[Gal(b1-4)]Glc6S
Procedure, shortened: as §1

[22] = target: Fuc(a1-3)[Gal(b1-4)]GlcNAc
Procedure, shortened: as §1

[23] = target: Fuc(a1-3)[Gal(b1-4)]GlcNAc(b1-2)Man(a1-3)[Fuc(a1-3)[Gal(b1-4)]GlcNAc(b1-2)Man(a1-6)]Man(b1-4)GlcNAc(b1-4)GlcNAc
Procedure, shortened: as §1

[24] = target: Fuc(a1-3)[Gal(b1-4)]GlcNAc(b1-2)Man(a1-3)[Fuc(a1-3)[Gal(b1-4)]GlcNAc(b1-2)Man(a1-6)]Man(b1-4)GlcNAc(b1-4)[Fuc(a1-6)]GlcNAc
Procedure, shortened: as §1

[25] = target: Fuc(a1-3)[Gal(b1-4)]GlcNAc(b1-3)Gal(b1-3)[Fuc(a1-4)]GlcNAc
Procedure, shortened: as §1

[26] = target: Fuc(a1-3)[Gal(b1-4)]GlcNAc(b1-3)GalNAc
Procedure, shortened: as §1

[27] = target: Fuc(a1-3)[Gal(b1-4)]GlcNAc(b1-4)Gal(b1-4)[Fuc(a1-3)]GlcNAc
Procedure, shortened: as §1

[28] = target: Fuc(a1-3)[Gal(b1-4)]GlcNAc(b1-4)Gal(b1-4)[Fuc(a1-3)]GlcNAc(b1-4)Gal(b1-4)[Fuc(a1-3)]GlcNAc
Procedure, shortened: as §1

[29] = target: Fuc(a1-3)[Gal(b1-4)]GlcNAc(b1-6)[Gal(b1-3)GlcNAc(b1-3)]Gal(b1-4)Glc
Procedure, shortened: as §1

[30] = target: Fuc(a1-3)[Gal(b1-4)]GlcNAc6S
Procedure, shortened: as §1

[31] = target: Fuc(a1-3)[Gal3S(b1-4)]GlcNAc
Procedure, shortened: as §1

[32] = target: Fuc(a1-3)[Gal3S(b1-4)]GlcNAc6S
Procedure, shortened: as §1

[33] = target: Fuc(a1-3)[GalNAc(b1-4)]GlcNAc
Procedure, shortened: as §1

Fuc(a1-4)GlcNAc = target: Fuc(a1-4)GlcNAc
Procedure, shortened: as §1

Fuc(b1-3)GlcNAc = target: Fuc(b1-3)GlcNAc
Procedure, shortened: as §1

Gal(a1-2)Gal = target: Gal(a1-2)Gal
Procedure, shortened: as §1

Gal(a1-3)Gal = target: Gal(a1-3)Gal
Procedure, shortened: as §1

Gal(a1-3)Gal(b1-3)GlcNAc = target: Gal(a1-3)Gal(b1-3)GlcNAc
Procedure, shortened: as §1

[34] = target: Gal(a1-3)Gal(b1-3)GlcNAc(b1-2)Man(a1-3)[Gal(a1-3)Gal(b1-3)GlcNAc(b1-2)Man(a1-6)]Man(b1-4)GlcNAc(b1-4)GlcNAc
Procedure, shortened: as §1

[35] = target: Gal(a1-3)Gal(b1-3)GlcNAc(b1-3)GalNAc
Procedure, shortened: as §1

[36] = target: Gal(a1-3)Gal(b1-3)[Fuc(a1-4)]GlcNAc(b1-2)Man(a1-3)[Gal(a1-3)Gal(b1-3)[Fuc(a1-4)]GlcNAc(b1-2)Man(a1-6)]Man(b1-4)GlcNAc(b1-4)GlcNAc
Procedure, shortened: as §1

Gal(a1-3)Gal(b1-4)Glc = target: Gal(a1-3)Gal(b1-4)Glc
Procedure, shortened: as §1

Gal(a1-3)Gal(b1-4)GlcNAc = target: Gal(a1-3)Gal(b1-4)GlcNAc
Procedure, shortened: as §1

[37] = target: Gal(a1-3)Gal(b1-4)GlcNAc(b1-3)GalNAc
Procedure, shortened: as §1

B1: Gal 4 (Canis lupus) (protein)
chain: MAYVPAPGYQPTYNPTLPYNKPIPGGLSVGMSVYIQGITSEHMRRFCVNFVAGAHPGSDIAFHFNPRFDGWDKVVFNSHLGGKWGSEEKKRSMPFRKGTHFELVFMVLAEHYKVVVNGNPFYEFGHRLPLQLVTHLQVEGDVELQSINFIGGTQPLGQGPGHTQQQPSSLPTMEGPPVFNPPVPFRKRLQGGLTVRRTVIIKGFVPFTSKSFVINFMVESSGDLALHINPRLTEGLVVRNSCLNGSWGSEDRKLSYNPFIPGQFFDLSIRCGMDRFKVYANGQHLFDFSHRLLALQNVDMLEINGDVTLSYIQV
glycan array binding signal (z-score) [1]: -0.147 | glycan array binding signal (z-score) [2]: -0.152 | glycan array binding signal (z-score) [3]: -0.147 | glycan array binding signal (z-score) [4]: -0.146 | glycan array binding signal (z-score) [5]: -0.142 | glycan array binding signal (z-score) [6]: -0.155 | glycan array binding signal (z-score) [7]: -0.149 | glycan array binding signal (z-score) [8]: 0.573 | glycan array binding signal (z-score) [9]: 0.393 | glycan array binding signal (z-score) [10]: -0.136 | glycan array binding signal (z-score) [11]: 5.95 | glycan array binding signal (z-score) [12]: 2.36 | glycan array binding signal (z-score) [13]: 3.76 | glycan array binding signal (z-score) [14]: 7.32 | glycan array binding signal (z-score) [15]: 0.359 | glycan array binding signal (z-score) [16]: -0.151 | glycan array binding signal (z-score) [17]: -0.139 | glycan array binding signal (z-score) [18]: -0.13 | glycan array binding signal (z-score) [19]: -0.106 | glycan array binding signal (z-score) [20]: -0.145 | glycan array binding signal (z-score) (Fuc(a1-3)GlcNAc): -0.151 | glycan array binding signal (z-score) [21]: -0.149 | glycan array binding signal (z-score) [22]: -0.151 | glycan array binding signal (z-score) [23]: -0.146 | glycan array binding signal (z-score) [24]: -0.136 | glycan array binding signal (z-score) [25]: -0.145 | glycan array binding signal (z-score) [26]: -0.148 | glycan array binding signal (z-score) [27]: -0.145 | glycan array binding signal (z-score) [28]: -0.156 | glycan array binding signal (z-score) [29]: -0.146 | glycan array binding signal (z-score) [30]: -0.145 | glycan array binding signal (z-score) [31]: -0.146 | glycan array binding signal (z-score) [32]: -0.126 | glycan array binding signal (z-score) [33]: -0.147 | glycan array binding signal (z-score) (Fuc(a1-4)GlcNAc): -0.155 | glycan array binding signal (z-score) (Fuc(b1-3)GlcNAc): -0.15 | glycan array binding signal (z-score) (Gal(a1-2)Gal): -0.155 | glycan array binding signal (z-score) (Gal(a1-3)Gal): -0.15 | glycan array binding signal (z-score) (Gal(a1-3)Gal(b1-3)GlcNAc): -0.152 | glycan array binding signal (z-score) [34]: -0.125 | glycan array binding signal (z-score) [35]: -0.149 | glycan array binding signal (z-score) [36]: -0.131 | glycan array binding signal (z-score) (Gal(a1-3)Gal(b1-4)Glc): -0.116 | glycan array binding signal (z-score) (Gal(a1-3)Gal(b1-4)GlcNAc): -0.155 | glycan array binding signal (z-score) [37]: -0.149
